Experimental data from the RNAGym collection of RNA variant scans (doi:10.7554/elife.90254).
Read counts are not given, so values of variants with three or more changes are uncertain.

B1: OR4K15 (parent)
chain: GUUAACGGUCAUAGGCCAUGGAAACUAGGAGCACCAUUUCGCUGCCAGUGAAGAAAUGAACAAAGAAAAUCUGGGCCAGGCAGGCAUCAAAAGAAAUAGUCUUGCGCUCAACCAGAAAGUCUGUAAUCAUUUUAAGGGUA

Variants of: B1
Assay: self-cleavage, relative activity (ratio to wild type); higher = more cleavage; in vitro, sequencing; the parent is a self-cleaving ribozyme
For A5G A11U U26C U49A A56G U131C, the self-cleavage was 1.38.
Work on A4C A36U A86C A135G yielded a self-cleavage of 0.91.
With A4G A33G A56G A67G U87C the self-cleavage was 0.42.
A5C A66G U103C U108A A126G gave a self-cleavage of 0.
Variant A4G A118G U124G has a self-cleavage of 0.18.
Work on A4G A64G U127C yielded a self-cleavage of 0.76.
Work on A4G A82G U130A U131A yielded a self-cleavage of 0.02.
Work on U3C U38C G53A yielded a self-cleavage of 0.9.
U3C A51G A67G showed a self-cleavage of 0.98.
U3A U19C A47C U70C A96G U139C showed a self-cleavage of 0.8.
U2C U38C A90U U120C A135G gave a self-cleavage of 0.79.
Variant A4G U70C C105A A118G has a self-cleavage of 0.04.
In the case of U2C U108C A110G U120C, the self-cleavage is reported as 0.02.
With U2C U38C A62U A68G the self-cleavage was 0.56.
In the case of U3A U19C G41A A62C, the self-cleavage is reported as 0.33.
For A4G A22G A82C A110G, the self-cleavage was 0.14.
Variant U3C A5G A24G has a self-cleavage of 0.92.
For A4G U19A U37C, the self-cleavage was 0.74.
For U3A A4U C35U A135G, the self-cleavage was 0.17.
U2C U57C U70C A118G gave a self-cleavage of 0.26.
For U3A A33U U37C A52G A64G, the self-cleavage was 1.42.
A4G A67U A96G U120C gave a self-cleavage of 1.
In the case of U3C A5U A51U A67G U70C A92G G136A, the self-cleavage is reported as 1.12.
A4G A116G U131C gave a self-cleavage of 0.31.
Work on U3G A78G C105U A111G yielded a self-cleavage of 0.03.
Variant A4U U9A U19A has a self-cleavage of 0.52.
In the case of A4G A11G A78C A92U, the self-cleavage is reported as 0.3.
A4G A82G A111U showed a self-cleavage of 0.18.
Variant A5G A13G A116U has a self-cleavage of 0.25.
Work on U3A A13U A23G A64G yielded a self-cleavage of 0.99.
For U3C C16U A27U U72C, the self-cleavage was 0.19.
In the case of U3C U39C A116G, the self-cleavage is reported as 1.12.
Variant U3A A5G U37C has a self-cleavage of 1.02.
Work on U3A C17A U70C yielded a self-cleavage of 0.72.
A5G A11G U43A A63G gave a self-cleavage of 0.84.
With A4G A98G A140U the self-cleavage was 0.7.
With U3C C10G A59G the self-cleavage was 0.87.
With U3C U12A U102A U103C the self-cleavage was 0.05.
A4G G50A G99A showed a self-cleavage of 1.1.
A4U G20A U102C U120A U122C showed a self-cleavage of 1.35.
With A4G A24U A51U A92G U130C the self-cleavage was 1.2.
Variant A4G A23G A78C has a self-cleavage of 0.5.
Work on U3C A23G U37C A125G U131C yielded a self-cleavage of 1.02.
Variant A4G A52G A56G A82G U102C has a self-cleavage of 0.64.
Variant A4G A24G A140U has a self-cleavage of 1.12.
U3A A94G A95G A118G gave a self-cleavage of 1.04.
In the case of A5C G50A A54G A91G A95G A114G, the self-cleavage is reported as 1.
Work on U2G A51U A59G U70C A91G A110G yielded a self-cleavage of 0.12.
In the case of A4G U39A A63G A78U C81U, the self-cleavage is reported as 0.34.
Variant U3A A13U A62G A114G has a self-cleavage of 0.24.
In the case of A4G A54G A63G A69U, the self-cleavage is reported as 1.7.
With A5G A13G A24U G75C A91U the self-cleavage was 0.28.
In the case of U3C A36C U39A, the self-cleavage is reported as 1.02.
A5G A18U A33G showed a self-cleavage of 0.57.
U3A A5G A33U A51G gave a self-cleavage of 0.52.
For A4G A52U U103C, the self-cleavage was 1.55.
U3C A27G A116U gave a self-cleavage of 0.17.
With U2C U43A A116G the self-cleavage was 0.52.
In the case of A4G A114U U132C, the self-cleavage is reported as 0.19.
U3C A63G U72A U133C showed a self-cleavage of 0.48.
In the case of A4G A56G G74C U120G, the self-cleavage is reported as 0.29.
U3A A11G U19C A64G showed a self-cleavage of 1.05.
A5G A22G A23G A59G U87C A134G gave a self-cleavage of 0.95.
Variant U3C A11G A64G has a self-cleavage of 0.31.
In the case of U3A A51G A66G A95G, the self-cleavage is reported as 1.21.
For U3C A22G U49C A64G G83A U87C, the self-cleavage was 1.57.
A4G A24G A60G showed a self-cleavage of 1.8.
A4G A56G A90G U122C showed a self-cleavage of 0.25.
A4G G20A A82G gave a self-cleavage of 1.04.
With A5G A13G A52G U57C the self-cleavage was 1.39.
Work on U3C U103C A116U yielded a self-cleavage of 0.02.
U3G A78G C121U U131C U132C showed a self-cleavage of 0.15.
For A4G A33C U39C A67C A89U U108C A110G, the self-cleavage was 0.06.
In the case of U2C U72C U100A A126G U131C A140U, the self-cleavage is reported as 0.02.
For U2C U37C U43C A51G U72A, the self-cleavage was 0.22.
In the case of A4G G75C U103C U133C, the self-cleavage is reported as 0.07.
For U2C U37C U87C A90U A114G, the self-cleavage was 0.29.
With U3C A4G A91G U139C the self-cleavage was 0.68.
For A5C U9C A52G, the self-cleavage was 0.71.
A4G A5U U37C A54G A86U gave a self-cleavage of 0.9.
U2G U100C U130C showed a self-cleavage of 0.78.
For A4G G8A U43C A59U A68C, the self-cleavage was 1.31.
Work on U3A U72C A134G yielded a self-cleavage of 0.52.
With A4G U70C U120C the self-cleavage was 0.16.
For A5C U37C U39A U72A A126G, the self-cleavage was 0.22.
In the case of A4G A67U U70C, the self-cleavage is reported as 1.16.
Work on A4G A52G A56U U108C yielded a self-cleavage of 0.05.
With A4G A11G A125G the self-cleavage was 0.12.
A5G A18G A69G A129G showed a self-cleavage of 1.3.
A4G U9C U38C U39A A89U showed a self-cleavage of 1.75.
In the case of U3C U9C A52G, the self-cleavage is reported as 0.7.
In the case of A4G A24G U108C A116U, the self-cleavage is reported as 0.04.
A4G A59G A69G A95G A114U showed a self-cleavage of 0.15.
A5C A23G A51G A55G U87C showed a self-cleavage of 1.48.
Variant A4G A18U U43C has a self-cleavage of 1.62.
Work on U3A U70C G104A yielded a self-cleavage of 0.03.
U3A A22G C46U A67U A134G gave a self-cleavage of 1.42.
Variant U3A A82U U100G has a self-cleavage of 0.24.
Work on U3A A5G U57C yielded a self-cleavage of 0.58.
With U3C A22G A96G A114G the self-cleavage was 0.93.
For U2G U26C A60G G74U, the self-cleavage was 0.
Variant U3A U37C A60U U120C has a self-cleavage of 0.58.
In the case of U2C U43C A69G U103C, the self-cleavage is reported as 0.23.
A5G A18G U19C A96G U120G showed a self-cleavage of 2.2.
Variant U3C U9A C76U A98G has a self-cleavage of 0.08.
Variant U3C U38C A59G A60G A94G has a self-cleavage of 0.97.
U3A A60U G138A showed a self-cleavage of 1.51.
With U2G U87C U132G the self-cleavage was 0.81.
For U3A A47G U49A A64G A82G, the self-cleavage was 0.62.
In the case of A5C A82G A86G, the self-cleavage is reported as 0.46.
A5G A11G U19A showed a self-cleavage of 1.23.
A4G U100C G123A gave a self-cleavage of 0.85.
In the case of U3C A23G U38A U70C A89U, the self-cleavage is reported as 0.42.
Work on U3A A5G A54G U70C yielded a self-cleavage of 0.85.
In the case of A4G G83U G106C A129G U133C, the self-cleavage is reported as 0.04.
In the case of U3C A51G U102A A116U, the self-cleavage is reported as 0.23.
For A4G A92G U102C, the self-cleavage was 1.29.
With A4G A54G A91G A92G the self-cleavage was 1.59.
U3C A27G G29C A98G gave a self-cleavage of 0.69.
A4G U37C A52G showed a self-cleavage of 0.68.
Work on U3A A63G A110G yielded a self-cleavage of 0.2.
Work on A4G A5C U19G U127C yielded a self-cleavage of 0.55.
For U2C U37C U122C, the self-cleavage was 0.91.
In the case of A4G A60G A63G A94G, the self-cleavage is reported as 0.59.
For U2G U19A U43C U130C, the self-cleavage was 0.27.
Work on U2C U38A A56G A92U A110G U132C yielded a self-cleavage of 0.24.
A4G U19G U43A showed a self-cleavage of 2.41.
For A4G A23G U26C A117G A118G, the self-cleavage was 0.7.
A5C A11G A30G U37C U87C U131C gave a self-cleavage of 1.96.
With A5G A13G C35U U39A A68G the self-cleavage was 0.53.
In the case of A4G U9C A59G, the self-cleavage is reported as 0.96.
In the case of U3C G8A G14A A82G U100C A111G, the self-cleavage is reported as 0.01.
U3A U39C A62G A69G U108C showed a self-cleavage of 0.05.
Work on U2C U37C A95G yielded a self-cleavage of 1.18.
With U3C A56G A67U the self-cleavage was 0.84.
Variant A4G A51U A82U A98G G115A has a self-cleavage of 0.03.
With U3A A11G U37C C85G the self-cleavage was 0.1.
With U3C A30G A60G A89U the self-cleavage was 1.13.
Variant A4G U37C A91G A110U U139C has a self-cleavage of 0.65.
In the case of U3C A27G A33G A51G A90G C107G, the self-cleavage is reported as 0.04.
U3C U9C U49C A82G U102C U132C gave a self-cleavage of 0.85.
For A5C A22U A67G A114U, the self-cleavage was 0.41.
Variant A5C A11G A24G U87A has a self-cleavage of 1.06.
A5C G7U U9C U26A U57C showed a self-cleavage of 1.68.
Work on A5G A18U U49C A129G yielded a self-cleavage of 1.27.
With U2G A56G U70C A90G the self-cleavage was 0.44.
With U3C A24G A56G C85G the self-cleavage was 0.43.
Work on A4G U38C A68U U100C yielded a self-cleavage of 1.23.
For U3C U103C U122C, the self-cleavage was 0.69.
A4G U49C A55G A82G A96G gave a self-cleavage of 0.78.
Variant U3C U9A A67G G75C U103C has a self-cleavage of 0.02.
Variant A5G A18U U87C has a self-cleavage of 0.42.
With A4G A5U U132C the self-cleavage was 0.41.
U3A A23U U39A showed a self-cleavage of 1.31.
U2G A22G A60G showed a self-cleavage of 0.59.
For A4G A23G A94G, the self-cleavage was 0.94.
With A4G A5G A47U the self-cleavage was 2.22.
With U3A C76U A91G U100C U120C U122C the self-cleavage was 0.04.
Work on A4G U39C C40U A82G A94G yielded a self-cleavage of 0.84.
Work on U2G A24G U39A U49A yielded a self-cleavage of 0.88.
For U3C A22G G73A A89U U124A, the self-cleavage was 0.03.
Variant U2C U39A U87A has a self-cleavage of 0.72.
Variant U3G U26C A116G U132C has a self-cleavage of 0.59.
In the case of A5G A22G A117G U139C, the self-cleavage is reported as 1.64.
A5G A18G A60G U122G U130C gave a self-cleavage of 2.03.
Work on U3C A11C C42U U127C yielded a self-cleavage of 1.71.
With A5G A22U G31A C42A A90G the self-cleavage was 0.78.
